For 36 molecules, activity change, negative = inhibition results are on record in PubChem BioAssay AID1745853 (National Center for Advancing Translational Sciences (NCATS), 2022).

Common to all, as to assay: Primary Screen for Target Class Profiling of Small Molecule Inhibitors of Methyltransferases
In test [1] the target is Glycine N-methyltransferase (Homo sapiens) (UniProt Q14749). Conditions: purified enzyme, MTase-Glo SAH luminescence; measured here: GNMT inhibition; at 40 µM; stronger effect = lower value. The method in brief: (§1)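 Each enzyme was reacted with SAM and its substrate, with compounds tested once at 40 uM; SAH formed was read by MTase-Glo luminescence.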
For test [2], the target named is Guanidinoacetate N-methyltransferase (Homo sapiens) (UniProt Q14353). Particulars: purified enzyme, MTase-Glo SAH luminescence; measured here: GAMT inhibition; at 40 µM; stronger effect = lower value. The method in brief: as §1
Test [3] has as its target Histamine N-methyltransferase (Homo sapiens) (UniProt P50135). Conditions: purified enzyme, MTase-Glo SAH luminescence; measured here: HNMT inhibition; at 40 µM; stronger effect = lower value. The method in brief:
as §1

Test [4] addresses Nicotinamide N-methyltransferase (Homo sapiens) (UniProt P40261). Conditions: purified enzyme, MTase-Glo SAH luminescence; measured here: NNMT inhibition; at 40 µM; stronger effect = lower value. The method in brief:
as §1

The target in test [5] is Phenylethanolamine N-methyltransferase (Homo sapiens) (UniProt P11086). Conditions: purified enzyme, MTase-Glo SAH luminescence; measured here: PNMT inhibition; at 40 µM; stronger effect = lower value. In short, it runs like this:
as §1

Values joined by “and” are separate entries in the source; they are usually repeats but may differ in a detail not shown here. Equal values may be shown once. The list shows a part of the results. These are further read-outs of the screen, such as a control signal, another cell line or another target. No call is given for them.
% is set by controls: 0 for no effect and ±100 for the full control effect.

`O=C(Nc1cc(F)ccc1F)N1Cc2c(sc3c2CCCC3)-n2cccc2C1c1cccc(F)c1` (configuration not stated): the activity change, negative = inhibition in test [1] is 0.483%; in test [2] it was 1.84%; in test [3], 9.01%; in test [4] it was 8.14%; in test [5], 10.1%.

As for `Cc1cc2c(cc3n2CC(C)(C(=O)NC2CCCCC2)N(CC(C)c2ccccc2)C3=O)o1` (configuration not stated), the activity change, negative = inhibition was -1.22% in test [1]; 0% in test [2]; -6.23% in test [3]; -1.42% in test [4]; -3.85% in test [5].

Take `CCn1c(C(=O)N(C2CC2)C2CC2)cc2c3c(ncn3C)c(Nc3cc(C)n(C)n3)nc21`: the activity change, negative = inhibition in test [1] is -17.9%; in test [2], -3.89%; in test [3], -16.7%; in test [4], -18.4%; in test [5], -15.1%.

Consider `O=C1CN(Cc2cccc(F)c2)S(=O)(=O)c2ccccc2N1Cc1ccc(F)cc1`, for which the activity change, negative = inhibition is -3.89% in test [1]; -8.15% in test [2]; 3.52% in test [3]; -12.1% in test [4]; -6.93% in test [5].

Take `Cc1cn2nc(C(=O)Nc3cccc(F)c3C)cc2c(N2CCCC2)n1`: the activity change, negative = inhibition in test [1] was -4.51%; in test [2], -5.3%; in test [3], -33.5%; in test [4], -9.6%; in test [5], -13.3%.

Turning to `O=C(Nc1ccc(F)cc1F)N1Cc2c(sc3c2CCCC3)-n2cccc2C1c1cccc(F)c1` (configuration not stated), the activity change, negative = inhibition in test [1] was 4.28%; in test [2], 0%; in test [3], 5.84%; in test [4], 2.48%; in test [5], 7.5%.

Turning to `CCCN1C(=O)c2c(C(=O)NCc3cc(Br)ccc3OC)ncn2CC1(C)C(=O)NC1CCCC1` (configuration not stated), the activity change, negative = inhibition in test [1] is -0.601%; in test [2], 0%; in test [3] it was 3.96%; in test [4] it was -5.24%; in test [5], 7.04%.

As for `C=C1CC[C@@H]2[C@](C)(CO)[C@H](O)CC[C@@]2(C)[C@@H]1C/C=C1/C(=O)OC[C@@H]1O`, the values for the activity change, negative = inhibition in test [1] and in test [3] were 0.987% and 10.2%, respectively.

Regarding `CCC(C)NC(=O)c1ccc2c(=O)n(C)c3nn(Cc4ccc(F)cc4Cl)c(=O)n3c2c1` (configuration not stated), the activity change, negative = inhibition was 0.279% in test [1]; 0.227% in test [2]; 0.424% in test [3]; -2.94% in test [4]; 1.14% in test [5].

Consider `CC1(C(=O)NC2CCCCC2)Cn2c(cc3sccc32)C(=O)N1Cc1ccccc1Cl` (configuration not stated), for which the activity change, negative = inhibition was -2.62% in test [1]; 0.845% in test [2]; 3.88% in test [3]; 4.31% in test [4]; -2.1% in test [5].

In the case of `O=C(CC1CCCCC1)N1CCCC1c1nncn1Cc1ccncc1` (configuration not stated), the activity change, negative = inhibition in test [1] is 1.66%; in test [2], -7.18%; in test [3], 2.47%; in test [4], -4.31%; in test [5] it was 1.11%.

For `CN(Cc1ccccc1C(F)(F)F)S(C)(=O)=O`, the activity change, negative = inhibition in test [1] is -5.29%; in test [2], -6.93%; in test [3], -2.46%; in test [4], -16.6%; in test [5], -10.9%.

With `O=C(NCc1cccnc1)c1ccc2c(=O)nc3c(-c4ccccc4)n[nH]n3c2c1`, the activity change, negative = inhibition in test [1] is -10.5%; in test [2] it was 0.976%; in test [3], -1.64%; in test [4] it was -1.75%; in test [5] it was -4.09%.

On to `Cc1ccc(S(=O)(=O)N[C@@H](Cc2ccccc2)C(=O)CCl)cc1`, for which the activity change, negative = inhibition in test [1] was -22.3%; in test [2] it was 13.6%; in test [3] it was 2.23%; in test [4], -4.96%; in test [5], 9.54%.

Take `CC(C)(OCc1nn(Cc2ccccc2)c2ccccc12)C(=O)O`: the activity change, negative = inhibition is 5.06% in test [1]; -1.9% in test [2]; 6.63% in test [3]; -16% in test [4]; -1.1% in test [5].

`COCCN1C(=O)C(CC(=O)O)=C2CCCCC21` (configuration not stated): the activity change, negative = inhibition in test [1] was -2.72%; in test [2], -2.28%; in test [3] it was -1.74%; in test [4], -8.12%; in test [5], 2.06%.

In the case of `CC(C)Cn1c(=O)c2ccc(C(=O)NC(C)C)cc2n2c(=O)n(CC(=O)N(C)c3ccc(F)cc3)nc12`, the activity change, negative = inhibition in test [1] was -3.5%; in test [2], 0.035%; in test [3], 1.91%; in test [4], -8.81%; in test [5], -2.99%.

With `CC(=O)N1CCC(C2CCN(C(C)=O)C2)CC1` (configuration not stated), the activity change, negative = inhibition was -1.17% in test [1]; 1.79% in test [2]; 0.158% in test [3]; -2.97% in test [4]; -3.45% in test [5].

On to `O=C(O)c1ccc(O)c2ncc(N3CCCN(CCc4cccc5ccccc45)CC3)cc12`, for which the activity change, negative = inhibition in test [1] was -19.4% and -2.76%; in test [2], 1.63%; in test [3], -3.71% and -4.58%; in test [4], -8.77% and -24.3%; in test [5], -83.3% and -71.8%.

Regarding `CC1(C(=O)NCc2ccccc2)Cn2nc(-c3ccccc3)cc2C(=O)N1C1CC1` (configuration not stated), the activity change, negative = inhibition is -0.961% in test [1]; -0.986% in test [2]; -5.79% in test [3]; -7% in test [4]; -4.29% in test [5].

As to `CC1(CO)CC(O)C2(C)CCC3(C)C(=CCC4C5(C=O)CCC(OC6OC(C(=O)O)C(O)C(O)C6OC6OC(C(=O)O)C(O)C(O)C6O)C(C)(C)C5CCC43C)C2C1` (configuration not stated), the activity change, negative = inhibition in test [1] was 3.42%; in test [2], 1.52%; in test [3], 8.79%; in test [4], -8.35%; in test [5], 2.87%.

As for `CC(=O)Nc1c2n(c3ccc(F)cc13)CC(C)(C(=O)NC1CCCCC1)N(C1CCCC1)C2=O` (configuration not stated), the activity change, negative = inhibition was -8.47% in test [1]; -4.33% in test [2]; -3.75% in test [3]; -3.98% in test [4]; -0.657% in test [5].

As to `CCOC(=O)N1CCN(/[N+]([O-])=N/Oc2ccc([N+](=O)[O-])cc2[N+](=O)[O-])CC1`, the activity change, negative = inhibition in test [1] is -11.8%; in test [2] it was 7.26%; in test [3], 0.095%; in test [4], -1.67%; in test [5] it was 5.48%.

With `COC(=O)c1ncn2c1C(=O)N(c1ccc3c(c1)OCO3)C(C)(C(=O)NCc1ccccc1)C2` (configuration not stated), the activity change, negative = inhibition in test [1] was -12.4%; in test [2], -1.51%; in test [3], -3.82%; in test [4] it was -7.58%; in test [5], -8.34%.

On to `Cc1cc(C)n(CC(=O)N2CCCC2c2nc(CCOCC3CCOCC3)no2)n1` (configuration not stated), for which the activity change, negative = inhibition in test [1] is -0.601%; in test [2], 0.617%; in test [3], 0.103%; in test [4], 1.07%; in test [5], -1.35%.

Consider `Cc1ncc2n1C(=O)N(C1CCN(CC3CC3)CC1)C2`, for which the activity change, negative = inhibition is -4.37% in test [1]; -10.6% in test [2]; -15.7% in test [3]; -12.6% in test [4]; -7.63% in test [5].

As for `CC1(C(=O)NC2CCCC2)Cn2c(cc3ccccc32)C(=O)N1Cc1cccnc1` (configuration not stated), the activity change, negative = inhibition in test [1] is -0.914%; in test [2] it was 0%; in test [3], 4.27%; in test [4], 2.13%; in test [5] it was -1.18%.

Regarding `CC(C)NCC(O)COc1ccc(CCOCC2CC2)cc1` (configuration not stated), the activity change, negative = inhibition is 2.58% in test [1]; 10.6% in test [2]; 0.835% in test [3]; -5.04% in test [4]; 1.07% in test [5].

Regarding `COc1ccc2cc3n(c2c1)CC(C)(C(=O)NC1CCCC1)N(c1cc(C)cc(C)c1)C3=O` (configuration not stated), the activity change, negative = inhibition is -2.08% in test [1]; 3.05% in test [2]; 2.18% in test [3]; -2.59% in test [4]; -6% in test [5].

Consider `COc1ccccc1N1CCN([C@@H]2[C@H](O)[C@H](CO)O[C@@H]2CNC(=O)c2ccccc2)CC1`, for which the activity change, negative = inhibition was -6.56% in test [1]; -7.87% in test [2]; -3.96% in test [3]; -17.5% in test [4]; -7.27% in test [5].

Turning to `C[C@@H]1O[C@@H](O[C@H]2[C@H](O)[C@@H](O[C@@H]3O[C@H](CO)[C@H](O)[C@H](O)[C@H]3O)[C@H](O[C@H]3CC[C@@]4(C)C(CC[C@]5(C)C4CC=C4[C@@H]6CC(C)(C)CC[C@]6(C(=O)O[C@@H]6O[C@H](CO)[C@@H](O)[C@H](O)[C@H]6O)CC[C@]45C)C3(C)C)O[C@@H]2C(=O)O)[C@H](O)[C@H](O)[C@H]1O` (some centres not stated), the activity change, negative = inhibition was 0% in test [1]; 7.91% in test [2]; 9.79% in test [3]; -2.33% in test [4]; 10.9% in test [5].

`Cc1ccc(CNC(=O)Cn2nc3n(C)c(=O)c4ccc(C(=O)NC5CCCC5)cc4n3c2=O)cc1`: the activity change, negative = inhibition in test [1] worked out at 5.63%; in test [2], 0%; in test [3], 3.12%; in test [4], 6.33%; in test [5], 5.3%.

As to `CCOCCCNC(=O)CCc1nnc2n(Cc3ccccc3Cl)c(=O)c3ccccc3n12`, the activity change, negative = inhibition was -8.33% in test [1]; 3.48% in test [2]; 1.91% in test [3]; 5.37% in test [4]; -1.44% in test [5].

For the molecule `COc1cccc(-c2nc3ccc(-c4ccc5c(c4)OCO5)cc3o2)c1OC`, the activity change, negative = inhibition was -4.04% in test [1]; -2.28% in test [2]; -1.63% in test [3]; -0.009% in test [4]; -2.49% in test [5].

For the molecule `CC(C)CCn1c(=O)c2ccccc2n2c(SCC(=O)Nc3ccc(F)cc3)nnc12`, the activity change, negative = inhibition in test [1] was -1.46%; in test [2] it was 5.57%; in test [3] it was 1.17%; in test [4], -16.6%; in test [5], 2.71%.

Regarding `CCOC(=O)c1ccc(CNC(=O)c2cn(CCCc3ccccc3)nn2)o1`, the activity change, negative = inhibition is -9.15% in test [1]; -5.79% in test [2]; -1.72% in test [3]; -12.6% in test [4]; -5.64% in test [5].
